# Measurements reported in PubChem BioAssay AID1745845 (National Center for Advancing Translational Sciences (NCATS), 2022).
# Several values for one entry are separate records, joined by “and”; a condition that tells them apart may be missing. Identical values can stand only once. Among all 360,000 compounds or so, about 2,600 (0.72%) were called active. The shares of active, inactive and inconclusive entries below differ from those in the screen. Calls come from the whole dose curve; as a rule, active = well fitted inhibition curve with a large enough effect; inconclusive = small, poorly fitted or top-dose-only effect; inactive = no such curve, though single readings can be large or run the other way. Where the call is inconclusive, the potency comes from a doubtful curve fit.
# Experiment: Primary qHTS for Inhibitors of ATXN expression; note: nearly all actives have a fitted effect of over 55% in size
# Conditions: HEK-293 ATXN2-luciferase reporter, luminescence, 24 h; series mostly up to 57 µM
# Outline: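 ATXN2-luciferase reporter cells (luciferase flanked by upstream and downstream ATXN2 gene portions) were treated 24 h at 37 °C with compounds at up to 57 uM. SteadyGlo luminescence gave expression; GF-AFC fluorescence gave viability.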
# Potency is the fitted concentration of half-maximal effect; tags give direction and shape of the fitted curve.
row,SMILES,Potency
1,O=C(CCCCCn1c(=O)[nH]c2ccccc2c1=O)N1CCN(Cc2ccc3c(c2)OCO3)CC1,inactive
2,Cc1cccc(N2CCN(C(=O)CS(=O)(=O)Cc3nc(-c4ccccc4C)oc3C)CC2C)c1 (stereo unspecified),"inconclusive: 39.8 µM [inhibitor, single point]"
3,O=C(/C=C/c1ccc(S(=O)(=O)NCc2ccco2)cc1)N1CCN(c2ccccc2)CC1,"inconclusive: 22.4 µM [inhibitor, single point]"
4,COc1ccc(NC(=O)NNC(=O)C(C)Oc2ccc(C(C)C)cc2)c(OC)c1 (stereo unspecified),inactive
5,CCCCCc1cc(=O)oc2c(C(CCN3CCCC(C)C3)c3ccc4c(c3)OCO4)c(OC)cc(OC)c12 (stereo unspecified),"inconclusive: 39.8 µM [inhibitor, single point]"
6,O=[N+]([O-])c1ccc(NC(=S)NCCc2ccc(Cl)cc2)cc1,"inconclusive: 35.5 µM [inhibitor, single point]"
7,Cc1nnc(NC(=O)c2ccccc2)s1,inactive
8,CN(CC(=O)N1CCN(Cc2ccccc2)CC1)S(=O)(=O)c1ccc(Br)cc1,inactive
9,C=CCc1cccc(/C=N/NC(=O)CNc2cccc3ccccc23)c1O,"inconclusive: 20 µM [inhibitor, single point]"
10,O=C(Nc1ccccc1)C1=C(c2ccccc2)S(=O)(=O)CCS1(=O)=O,active: 5.62 µM
11,O=C(O)CCCNc1cc(N2CCN(C(=O)c3ccco3)CC2)c2noc3c2c1C(=O)c1ccccc1-3,"inconclusive: 39.8 µM [inhibitor, single point]"
12,Cc1sc(NC(=O)c2cc(-c3ccc(Cl)cc3)nc3ccccc23)c(C(N)=O)c1C,"inconclusive: 10 µM [inhibitor, partial curve]"
13,Cc1ccc(S(=O)(=O)NC(=O)NN2CC3CCCC3C2)cc1 (stereo unspecified),"inconclusive: 24.3 µM [inhibitor, single point]"
14,COc1cc(NC(=O)c2csc(N)n2)cc(C(=O)Nc2cccc(C(F)(F)F)c2)c1,"inconclusive: 25.1 µM [inhibitor, single point] and inconclusive: 28.2 µM [inhibitor, single point]"
15,Cc1cc(NC(=O)CSc2nnc(-c3ccc(O)cc3)o2)no1,inactive
16,COc1ccc2oc(=O)c(C(=O)N3CCN(c4ccc(C)cc4)CC3)cc2c1,inactive
17,COc1ccc(C2CC(c3ccc(Br)cc3)=NN2C(=O)CN2CCCC2)cc1 (stereo unspecified),"inconclusive: 3.55 µM [inhibitor, partial curve]"
18,O=C(Nc1ccc([N+](=O)[O-])cc1)Nc1ccc(OC(F)F)c(Cl)c1,active: 12.6 µM
19,CCN(CC)S(=O)(=O)c1ccc(Cl)c(C(=O)NC)c1,inactive
20,Nc1ncn([C@@H]2O[C@H](CO)[C@@H](O)[C@@H]2O)c(=O)n1,active: 5.44 µM
21,C#CCN(C[C@@H]1[C@@H](OC(=O)NCc2ccc(OC)c(OC)c2)[C@@H](OC(=O)NCc2ccc(OC)c(OC)c2)Cn2c(=O)ccc(=O)n21)S(=O)(=O)c1ccc(C)cc1,"inconclusive: 31.6 µM [inhibitor, single point]"
22,C/C(=N/NC(=O)c1cc(-c2ccc(Br)s2)[nH]n1)c1ccco1,inactive

row,SMILES,Potency
1,COc1ccc(NC(=O)Cn2c(SCc3cccc(Cl)c3)nc3ccncc32)c(OC)c1OC,inactive
2,Cc1nnc(NC(=O)c2nc(S(=O)(=O)Cc3ccccc3C)ncc2Cl)s1,"inconclusive: 39.8 µM [inhibitor, single point]"
3,O=C(COc1ccc(/C=N/NC(=O)c2cc3ccccc3o2)cc1Cl)Nc1ccccc1,active: 10 µM
4,COc1ccccc1/C=C/C1(C(=O)NC2CCCC2)CC(=O)N1c1ccc(C)cc1 (stereo unspecified),"inconclusive: 17.8 µM [inhibitor, partial curve, poor fit]"
5,O=C(CSc1nnc2ccccn12)c1ccc(OC(F)F)cc1OC(F)F,"inconclusive: 39.8 µM [inhibitor, partial curve, poor fit]"
6,CCOC(=O)c1c(-c2ccccc2)[nH]c2ccc(O)cc12,inactive
7,CCOC(=O)c1ccc(NC(=S)N(CCN(C)C)Cc2cccs2)cc1,inactive
8,CCOc1ccc(NC(=O)CSc2nnc(C)n2CCCOC)cc1,inactive
9,O=C(COC(=O)c1ccc(Br)o1)Nc1cccc(S(=O)(=O)N2CCCCCC2)c1,inactive
10,CCCCCc1cc(=O)oc2c(C(CCN3CCCC(C)C3)c3ccc(OC)cc3)c(OC)cc(OC)c12 (stereo unspecified),"inconclusive: 35.5 µM [inhibitor, single point]"
11,CCCOc1ccc(C(=O)NC(=S)NNC(=O)c2c(-c3ccccc3)noc2C)cc1,"inconclusive: 37.7 µM [inhibitor, single point]"
12,CCC/C=C/c1ccc(CN2C(C(C)C)C(=O)N(Cc3cn(CCC4OCCO4)nn3)CCS2(=O)=O)cc1 (stereo unspecified),"inconclusive: 39.8 µM [inhibitor, single point]"
13,CCOC(=O)c1ccc(NC(=O)C2CCCN(S(=O)(=O)c3cnc[nH]3)C2)cc1 (stereo unspecified),inactive
14,CN1CCN(c2ccc(NC(=O)c3ccc(-c4ccc(Cl)cc4)o3)cc2)CC1,"inconclusive: 25.1 µM [inhibitor, single point]"
15,COC(=O)c1cnc(Nc2nc(C(N)Cc3ccccc3)cs2)nc1C(F)(F)F (stereo unspecified),"inconclusive: 28.2 µM [inhibitor, single point]"
16,CN(C)C(=O)CCc1ccc2c3c([nH]c2c1)[C@]1(CCC2CCCC2)[C@@H](C(=O)N2CCOCC2)C[C@H](CC(=O)NCCc2ccccn2)C(=O)N1CC3,inactive
17,CCCCOCCCNC(=O)C[C@@H]1C[C@@]2(C(=O)OC)CCCCC=C2N(Cc2ccc(Cl)cc2Cl)C1=O,"inconclusive: 39.8 µM [inhibitor, single point]"
18,CC(=O)N(CCC(Cc1ccccc1)c1ccc2c(c1)OCO2)Cc1ccc(Cl)cc1 (stereo unspecified),"inconclusive: 31.6 µM [inhibitor, single point]"
19,Cc1oc2cc3oc(=O)c(CCC(=O)NCCN4CCOCC4)c(C)c3cc2c1C,inactive
20,COc1ccc(CNC(=O)c2cccc(N3CCCS3(=O)=O)c2)cc1,inactive
21,Cc1onc(-c2ccccc2)c1C(=O)NC(=S)NNC(=O)c1ccc(O)cc1O,"inconclusive: 8.91 µM [inhibitor, partial curve, poor fit]"
22,CN1CCC2(CC1)N=C(c1ccc(F)cc1)C(=S)N2C(=O)c1ccccc1,"inconclusive: 35.5 µM [inhibitor, single point]"

row,SMILES,Potency
1,C/C(=N\OCc1cccc(C(=O)O)c1)c1ccc(Cl)cc1,active: 2.82 µM
2,COc1cccc(NC(=O)COC(=O)c2c3c(nc4ccccc24)CCC(C)C3)c1 (stereo unspecified),"inconclusive: 28.2 µM [inhibitor, single point]"
3,CCCOc1ccc(/C=C/C(=O)Nc2ccc([N+](=O)[O-])cc2C)cc1OC,"inconclusive: 28.2 µM [inhibitor, partial curve, poor fit]"
4,CCCCCCN1CCN(C2CN(Cc3cn(Cc4ccc(Cl)cc4)nn3)S(=O)(=O)C2)CC1 (stereo unspecified),inactive
5,O=C(Cn1ncc(Cl)c(Cl)c1=O)NC1CCCCC1,"inconclusive: 31.6 µM [inhibitor, single point]"
6,Cc1ccc(Cl)c2sc(N3CCN(C(=O)C4CC4)CC3)nc12,"inconclusive: 28.2 µM [inhibitor, partial curve, poor fit]"
7,COc1ccc(C)cc1-n1c(SCC(=O)NC2CC2)nc2ccccc2c1=O,inactive
8,COc1ccc(OCCn2c(C3CC(=O)N(c4ccc(F)cc4)C3)nc3ccccc32)cc1 (stereo unspecified),"inconclusive: 39.8 µM [inhibitor, single point]"
9,CCCCc1c(-c2ccc(Cl)cc2)ncn1CCc1ccccc1OC,"inconclusive: 39.8 µM [inhibitor, single point]"
10,COc1ccc(/C=N/NC(=O)c2ccc(C)nc2)cc1O,inactive
11,Cc1ccccc1OCC(=O)Nc1sc2c(c1C#N)CC(C)(C)NC2(C)C,inactive
12,Oc1c(Br)cc(Br)cc1/C=N/Nc1ccc(Cl)nn1,active: 2.82 µM
13,O=C(NNC(=O)c1ccccc1O)c1ccc(S(=O)(=O)Nc2ccccc2)cc1,"inconclusive: 15.8 µM [inhibitor, partial curve, poor fit]"
14,COc1ccccc1NC(=S)NNC(=O)c1c(Cl)c(C)nn1C,inactive
15,O=C(CCC(=O)N1CCN(c2cccc(Cl)c2)CC1)N1CCN(c2ccccc2)CC1,"inconclusive: 13.4 µM [inhibitor, partial curve, poor fit]"
16,CC(C)(C)c1ccc(C(=O)Nc2ccc(CN3CCS(=O)(=O)CC3)cc2)cc1,"inconclusive: 15.8 µM [inhibitor, partial curve, poor fit]"
17,NC(=O)CSc1nc2c(oc3ccccc32)c(=O)n1-c1ccccc1F,inactive
18,Cc1nc2c(OCc3ccc(C#N)cc3)cccn2c1N(C)C(=O)CCC1CCCC1,"inconclusive: 28.2 µM [inhibitor, single point]"
19,COc1ccc(Cl)cc1-c1cc(C(=O)Nc2ccc(C)c(NS(C)(=O)=O)c2)[nH]n1,active: 22.4 µM
20,CCCCCCn1c(=O)n2n(c1=O)[C@@H]1CN(S(=O)(=O)c3ccc(C)cc3)C[C@]1(O)[C@@H](OC(=O)NCc1ccccc1)C2,"inconclusive: 39.8 µM [inhibitor, single point]"
21,Cc1cc(N2CCN(c3ccccc3Cl)CC2)n2cc(-c3ccccc3)nc2n1,"inconclusive: 28.2 µM [inhibitor, partial curve, poor fit]"
22,O=C(CN(c1ccc(Br)cc1)S(=O)(=O)c1ccc(Cl)c([N+](=O)[O-])c1)NCC1CCCO1 (stereo unspecified),"inconclusive: 39.8 µM [inhibitor, single point]"
